Laboratory results: PubChem BioAssay AID1159614 (National Center for Advancing Translational Sciences (NCATS), 2016)
Among all 45,000 compounds or so, about 65 (0.1%) were called active. Calls follow the shape of the dose curve; as a rule, active = well fitted activation curve with a large enough effect; inconclusive = small, poorly fitted or top-dose-only effect; inactive = no such curve, though single readings can be large or run the other way. The list shows a part of the results.

The compounds below were run against Galactocerebrosidase (Homo sapiens) (UniProt P54803) (assay: A Novel Cell-Based Assay to Identify Small Molecules for B -Galactocerebrosidase). Settings: 145M-Twi-hGALC-G270D cells, HMU-beta-Gal fluorescence, 48 h; series mostly up to 57.5 µM; activation: at the top concentration.
In short: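 qHTS, 1536-well; 145M-Twi-hGALC-G270D cells (WT line also made) in DMEM/F12 + 10% FBS; compound incubation on live cells; HMU-β-gal 0.1 mM final, pH 5.2, NaTC; carbonate stop; fluorescence increase = enhanced residual activity.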
Also: 0% is about no effect; nearly all actives have a fitted effect of over 65% in size.

Chain of UniProt P54803 (P54803 whole entry, looked up): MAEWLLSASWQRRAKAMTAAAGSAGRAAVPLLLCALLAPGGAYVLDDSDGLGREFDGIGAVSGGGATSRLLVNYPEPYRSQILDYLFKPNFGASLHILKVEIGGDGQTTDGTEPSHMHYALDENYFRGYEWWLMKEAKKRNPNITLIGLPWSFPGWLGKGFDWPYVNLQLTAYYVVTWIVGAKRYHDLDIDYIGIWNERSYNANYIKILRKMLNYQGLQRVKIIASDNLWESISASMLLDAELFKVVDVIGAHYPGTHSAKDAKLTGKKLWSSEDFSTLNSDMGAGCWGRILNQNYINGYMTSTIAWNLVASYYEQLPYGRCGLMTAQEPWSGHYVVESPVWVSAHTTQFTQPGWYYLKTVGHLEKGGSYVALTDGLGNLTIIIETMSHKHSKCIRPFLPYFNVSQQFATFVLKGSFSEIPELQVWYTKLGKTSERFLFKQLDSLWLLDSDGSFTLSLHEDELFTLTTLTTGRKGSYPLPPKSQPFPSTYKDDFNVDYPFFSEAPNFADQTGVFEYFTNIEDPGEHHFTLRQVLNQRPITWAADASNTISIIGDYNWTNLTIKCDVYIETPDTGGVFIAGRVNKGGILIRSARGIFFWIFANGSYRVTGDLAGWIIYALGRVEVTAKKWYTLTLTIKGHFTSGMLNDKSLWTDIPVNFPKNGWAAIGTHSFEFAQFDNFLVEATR

Compound | activation
COc1ccc(NC(=O)c2ccco2)cc1NC(=O)c1ccccc1[N+](=O)[O-] | inactive: -10.6%
CCc1cccc(C)c1Nc1nn2c(=O)c3ccccc3nc2s1 | inactive: -13.7%
Cn1c(SCc2ccc(F)cc2)nc2ccc(C(=O)NCc3cccc(Cl)c3)cc21 | inactive: -11.8%
Cc1ccc(N(Cc2cccs2)C(=O)c2ccc(OC(C)C)cc2)cc1 | inactive: -12%
COc1ccc2c(CNC3CCC(C)CC3)c(C(=O)O)n(Cc3ccc(F)cc3)c2c1 (stereo not drawn) | inactive: -6.05%
COc1cccc(OCCSc2nc3ccccc3n2CC(=O)N2CCOCC2)c1 | inactive: 1.38%
CCOc1ccccc1C(=O)NCc1ccc2c(c1)CCN2C(=O)c1ccc(F)cc1 | inactive: -0.249%
Cc1cc(=O)n2nc(N3CCC(C(=O)Nc4ccc(Br)c(C)c4)CC3)sc2n1 | inactive: -15.6%
O=S1(=O)OC(c2ccc(O)cc2)(c2ccc(O)cc2)c2ccccc21 | inactive: -7.33%
COCCNC(=O)c1ccc(Cn2c(SCC(N)=O)nc3ccccc3c2=O)cc1 | inactive: 3.21%
COc1cc2nc(NCCc3cccc(C)c3)n3nc(-c4ccccc4)nc3c2cc1OC | inactive: -4.44%
COc1ccc(C2CC(=O)Nc3c2c(C)nn3-c2nncc(-c3ccccc3)n2)c(OC)c1OC (stereo not drawn) | inactive: -7.96%
CCOC(=O)c1cnc2c(ccc3ccccc32)c1Nc1ccccc1O | inactive: -22.5%
CCOC(=O)c1cccc(NC(=O)COc2ccc3c(C)cc(=O)oc3c2)c1 | inactive: -9.3%
Cc1ccc(C(=O)NCCc2csc(-c3cccc(F)c3)n2)cc1C | inactive: -14.9%
COc1ccc(-c2noc(CN(C(=O)c3ccc(C)cc3C)C(C)C)n2)cc1 | inactive: -33.3%
CCOC(=O)c1ccccc1NC(=O)CSc1ccc(-c2sc(C)nc2C)nn1 | inactive: -13.4%
CCN(C(=O)c1c(C)oc2ncnc(N3CCCCC3)c12)c1cc(C)ccc1C | inactive: -7.14%
COc1ccccc1/C=C/c1nc(C#N)c(NCc2ccccc2)o1 | inactive: -2.76%
COc1ccc(-c2cn3c(n2)sc2cc(C(=O)NCCc4ccccc4)ccc23)cc1 | inactive: 3.48%
O=C(OCc1cc(=O)n2nc(C3CC3)sc2n1)c1cccc(NC(=O)c2ccccc2Cl)c1 | inactive: -15.9%
Cc1ccc(C)c(NC(=O)c2cnc(N3CCCC3)nc2C)c1 | inactive: -12.4%
CCC(=O)N1CCCc2cc(S(=O)(=O)N3CCC(C(=O)NC4CCC(C)CC4)CC3)ccc21 (stereo not drawn) | inactive: -4.85%
Cc1cc(C)cc(NC(=O)NCc2noc3ccccc23)c1 | inactive: -19.4%
CCOc1ccccc1C(=O)Nc1cccc(-c2nc3ccccc3s2)c1 | inactive: -20.2%

Compound | activation
COCCOC(=O)C1=C(C)NC(C)=C(C(=O)OC/C=C/c2ccccc2)C1c1cccc([N+](=O)[O-])c1 (stereo not drawn) | inactive: -12.7%
O=C(Cc1ccc(Cl)cc1)NC1CC(=O)N(c2ccc3c(c2)OCCO3)C1 (stereo not drawn) | inactive: -6.19%
Cc1cccc(CNC(=O)C2CCN(c3nn4cc(-c5ccc(F)cc5)nc4s3)CC2)c1 | inactive: -5.55%
COc1ccc(-n2ncc(C(=O)NCc3cccs3)c2C2CCN(C(=O)OC(C)(C)C)CC2)cc1 | inactive: -5.38%
CCc1ccccc1N(CC)C(=O)c1cc2c(s1)-c1ccccc1SC2 | inactive: 2.3%
CCc1nnc(NC(=O)c2nc(SCc3cccc(C)c3)ncc2Cl)s1 | inactive: -6.02%
O=S(=O)(c1ccccc1)n1nc(-c2ccco2)nc1NCc1ccccc1 | inactive: -5.49%
CCCCNc1ccc(C(=O)OCCOCCOCCOCCOCCOCCOCCOCCOCCOC)cc1 | inactive: -21.8%
CCC(Sc1nnc(-c2ccc(F)cc2)c(-c2ccc(F)cc2)n1)C(=O)NC1CCCC1 (stereo not drawn) | inactive: -14.4%
CCOc1ccc(-c2cn3c(n2)sc2cc(C(=O)NC(C)C45CC6CC(CC(C6)C4)C5)ccc23)cc1 (stereo not drawn) | inactive: -5.13%
CCOc1ccc(C(c2c(O)cc(C)n(Cc3ccco3)c2=O)N2CCN(C)CC2)cc1 (stereo not drawn) | inactive: -24.4%
CC1CCN(C(=O)Cn2cc(SCC(=O)NCc3ccccc3)c3ccccc32)CC1 | inactive: 3.43%
O=C(CSc1nc2c([nH]c3ccccc32)c(=O)n1-c1ccccc1F)Nc1cccc(Cl)c1 | inactive: -12.9%
CCC(=O)N1CCc2cc(S(=O)(=O)CCC(=O)Nc3cc(Cl)ccc3OC)ccc21 | inactive: -14%
COc1cccc(N2CC(NC(=O)/C=C\c3ccccc3)CC2=O)c1 (stereo not drawn) | inactive: -3.67%
CC(Nc1oc(-c2ccc(COc3ccccc3)o2)nc1C#N)c1ccccc1 (stereo not drawn) | inactive: -21.3%
Cc1cccc(-n2ncc3c(NCCOCCO)ncnc32)c1 | inactive: -7.25%
CCOc1ccc(CNC(=O)c2cc3c(=O)oc4ccc(C)cc4c3s2)cc1 | inactive: -11.6%
Cc1ccccc1CNCCCSc1nnnn1C | inactive: -7.57%
Cc1ccc(NC(=O)CSCc2cc(=O)c3ccccc3[nH]2)c(C)c1 | inactive: 10.6%
COc1ccc(C2C(C(=O)Nc3ccccc3)=C(C)Nc3nc(-c4ccc(Cl)cc4)nn32)cc1 (stereo not drawn) | inactive: -17.3%
Cc1cccc(Cn2c(CN3CCC(C(=O)NC(C)C)CC3)cc3ccccc32)c1 | inactive: -19.4%
COc1ccc(CNC(=O)C2CCN(S(=O)(=O)c3cccc(-c4noc(C)n4)c3)CC2)cc1 | inactive: -9.24%
Cc1cccc(Nc2nc(-c3ccccc3)nc3ccccc23)c1 | inactive: -1.99%
O=C(COCc1cc(-c2ccc(F)cc2)on1)Nc1cccc(C(F)(F)F)c1 | inactive: -13.8%

Compound | activation
CCCOc1ccc(C2C(=O)N(C3CCCCC3)CC(=O)N2C2CCCCC2)cc1OC (stereo not drawn) | inactive: -10.8%
COc1ccc(Cn2c(CO)cnc2SCc2ccccc2)cc1 | inactive: -10.1%
Cc1ccc(-n2c(=O)c3c(C)c(C(=O)N(C)C)sc3n(Cc3ccccc3C)c2=O)cc1C | inactive: -12%
COc1ccc(-c2cn3c(n2)sc2cc(C(=O)NCCCN4CCN(C)CC4)ccc23)cc1 | inactive: -2.94%
O=C(NCc1ccccc1Cl)C1=Cc2cc(Br)ccc2OC1 | inactive: -18.5%
CCCCCn1c(CCCNC(=O)c2ccccc2OC)nc2ccccc21 | inactive: -13.5%
COc1ccccc1-c1nn(CCC(=O)Nc2ccc(C)cc2)c2nc(C)cc(C)c12 | inactive: -11.3%
CCN1CCN(CCCNC(=O)Cn2nc(C)n3c(cc4c(OC)cccc43)c2=O)CC1 | inactive: -13.5%
Cc1ccccc1NC(=O)CSc1ccc(-c2ccccn2)nn1 | inactive: -6.3%
COc1cc2c(cc1OC)CN(C(=O)[C@H](C)N[C@@H](CCc1ccccc1)C(=O)O)[C@H](C(=O)O)C2 | inactive: -5.28%
CC1=C(C(N)=O)C(c2ccc(C)cc2)n2nc(SCc3ccccc3)nc2N1 (stereo not drawn) | inactive: 6.08%
CCOc1ccc(NC(=O)CC2C(=O)N(c3ccc(OC)cc3)C(=O)N2CCC2=CCCCC2)cc1 (stereo not drawn) | inactive: -14.9%
COc1cccc(N2CCN(C(=O)c3ccc4nc(N5CCC(C)CC5)sc4c3)CC2)c1 | inactive: -8.24%
CCOC(=O)c1cnc2ccc(C(=O)OC)cc2c1Nc1ccc(OCc2ccccc2Cl)cc1 | inactive: 18%
CCN(CC)C(=O)Cn1ncc2c([nH]c3ccccc32)c1=O | inactive: -9.6%
CC(=O)Nc1cccc(-c2nnc(SCC(=O)c3cc([N+](=O)[O-])ccc3Cl)o2)c1 | inactive: -8.03%
Cc1oc2c(c1C(=O)NCc1ccccc1F)C1=NCCN1C=N2 | inactive: -8.89%
O=C(NCC(c1ccc2c(c1)OCO2)N1CCN(c2ccccc2)CC1)C(=O)Nc1ccccc1F (stereo not drawn) | inactive: -23%
CCOC(=O)NNC(=O)C1CCC(C)CC1 (stereo not drawn) | inactive: -8.51%
CC(C)Oc1ccc(CNC(=O)c2cnc3sc(N4CCCC4)nn3c2=O)cc1 | inactive: -2.07%
O=C(O)c1cc(-c2ccccc2)nn1Cc1ccccc1 | inactive: -5.53%
Cc1ccc(-c2nnc3ccccc3c2C(=O)Nc2ccc(F)cc2)cc1 | inactive: -4.22%
COc1ccc(C(C)=O)cc1CSc1nc(Nc2ccc(F)c(F)c2)c2ccccc2n1 | inactive: -0.245%
Cc1ccc(N2CCN(c3nc4ccc(C(=O)c5ccccc5)cc4n4cnnc34)CC2)c(C)c1 | inactive: -18.3%
COc1ccccc1Nc1nn2c(=O)c3ccc(C(=O)NCCc4ccccc4)cc3nc2s1 | inactive: -24.3%

Compound | activation
COc1ccc(C)cc1NC(=O)N(C(C)C)C1CCN(C(C)=O)CC1 | inactive: -7.07%
CC(=O)Nc1ccc(NC(=O)c2ccc3c(c2)CCN3S(=O)(=O)c2ccc(C)cc2)cc1 | inactive: -17.7%
Cc1cc(C)cc(NC(=O)C(=O)NCCc2sc(-c3cccc(F)c3)nc2C)c1 | inactive: -13.1%
Cc1ccn2c(Nc3ccccc3)c(-c3c[nH]c4ccccc34)nc2c1 | inactive: -13.1%
O=C(CSc1n[nH]c(-c2ccccc2)n1)N1CCN(c2ccc(F)cc2)CC1 | inactive: -5.01%
CCOC(=O)c1[nH]c2ccccc2c1NC(=O)c1ccc(C)c(C)c1 | inactive: -13.3%
Cc1noc(Cn2c(=O)c3ccccc3n(CC(=O)Nc3cc(Cl)ccc3C)c2=O)n1 | inactive: -9.4%
O=C(CCn1cnc2onc(-c3ccc(F)cc3)c2c1=O)Nc1cccc(C(F)(F)F)c1 | inactive: -10.1%
Cc1ccc(-c2nnc(Nc3ccc(OCC(N)=O)cc3)c3ccccc23)cc1S(=O)(=O)NCC1CCCO1 (stereo not drawn) | inactive: -12.5%
Cc1ccc(CSc2nc3ccccc3c3nc(CCn4c(C)nc5ccccc54)nn23)cc1 | inactive: -7.58%
CCc1ccccc1NC(=O)CCn1cccn1 | inactive: -35.1%
Cc1ccc(C)c(N2CCN(CCCNC(=O)c3cnn(-c4cccc(Cl)c4)c3C3CCN(C(=O)OC(C)(C)C)CC3)CC2)c1 | inactive: -19.9%
Cc1cc(C)cc(NC(=O)C(C)N2Cc3ccccc3C2=O)c1 (stereo not drawn) | inactive: -0.252%
CCOc1ccc(NC(=O)c2ccc3c(=O)n4c(nc3c2)CCCCC4)cc1 | inactive: -3.27%
CCOc1ccccc1NC(=O)CN1C(=O)CC(c2ccc(C)c(C)c2)=Nc2ccccc21 | inactive: -14.1%
Cc1ccc(-n2c(=O)c3c(cnn3C)n(CC(=O)Nc3cccc(Cl)c3)c2=O)cc1 | inactive: 1.36%
O=C(O)C(S)C(S)C(=O)O (stereo not drawn) | inactive: -7.6%
Cc1ccc(CNC(=O)C2CCN(C(=O)N3CC(C)Oc4ccc(Cl)cc43)CC2)cc1 (stereo not drawn) | inactive: -14%
CCC(C(=O)NCCc1ccc(OC)c(OC)c1OC)n1nc(C)c2sc3ccccc3c2c1=O (stereo not drawn) | inactive: 0.879%
CC1CCN(S(=O)(=O)c2ccc3c(c2)N(C)C(=O)CC(=O)N3C)CC1 | inactive: -13.5%
CCc1ccc(CNC(=O)CN2C(=O)C3CCCCN3c3ccc(C(=O)N4CCCC4)cc32)cc1 (stereo not drawn) | inactive: -1.54%
CC(C)Oc1ccc(CNC(=O)C(C)n2ccc3cc(S(=O)(=O)N4CCCCCC4)ccc32)cc1 (stereo not drawn) | inactive: -17.1%
COc1cccc(NC(=O)C(C)n2c(=O)cc(C(F)(F)F)c3c(C)nn(C)c32)c1 (stereo not drawn) | inactive: -23.2%
